The list shows a part of the results.
These sequences were tested on PfHDP1 homeodomain (GST-tagged) (assay: gcPBM binding intensity (ln(normalized median fluorescence intensity)); higher = stronger DNA binding).
Method in brief: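 GST-tagged P. falciparum DNA-binding domains produced in E. coli were incubated for 1 h on an Agilent 4 × 180k array of primer-extended double-stranded 36-bp intergenic genomic probes with negative controls. Binding intensity is the highest Masliner-normalised natural-log median intensity across replicate spots of either probe orientation, with bound protein detected by Alexa488 anti-GST antibody at 488 nm.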

Sequence	gcPBM binding intensity (ln)
CAAAGATATATAAACACACAAATATAACATATATAC [CACACA_site7395]	6.63
TATATTATTATATATTGTACTTTTTATATTTGCATT [XGTACX_site2978]	6.43
TACACTTGTAATTGCGTGCACGAAGGATATATATAT	10.4
AAAAAAAAAAAAAGGTGTACATGCAAAATAAATTCT [XGTACX_site4592]	6.48
AAATAAATAAGAAACGCATGCATATATAATATATAA [TGCATGCA_site326]	6.75
GTTATTTATAGACACACACACATGCATGCACATATA [CACACA_site6204]	10.2
CATATATATTTGTTCACACACACACCCAAAAAAAAA [CACACA_site2476]	6.8
TTTAAAATGGGACTTTGAAAAAAAAAAAAAAAAACA [TGCATGCA_negctrl_site111]	6.1
GAAAAAGTTATAAATTGTACTAAATATTAAATATTG [XGTACX_site7890]	6.24
ATATATATATATATTTGTACATATATACATAAAATT [XGTACX_site359]	8.99
CACACCCACAGACACACACACACATATATATATATA [CACACA_site363]	9.23
TATATATATATATATTGTACATAATGTATATATGTT [XGTACX_site3448]	9.09
TATAGGTATGTATGTACACACAAAAAATGGAATATA [CACACA_site7704]	7.2
CATATGTTCATCATAGCACACATATATAAATTACAA [CACACA_site9177]	6.5
TTACACAAACAAATTATGGACACATAAGTAAAAGGA [CACACA_negctrl_site1622]	6.97
TGAAAAAAAAAAAAAAAAAAAAGAAAAAAAAAAAAA [CACACA_negctrl_site709]	5.61
TATAATTCATATGAAACACACATTTATTTTAATTAC [CACACA_site3686]	6.47
GAAAAAAGAAAAAAAAGTACATATATTTAATAAGAC [XGTACX_site6912]	6.71
TTATCCATAAAAAAGTGTACGCACTAAAATTGAAAA [XGTACX_site5460]	6.68
TTTATTATCGTTCTCATACACACAAAATATACATAC [CACACA_site2642]	6.89
TAGGCGTTTAATAAAAGTACCCACACATATATTATT [XGTACX_site1932]	6.46
CATAAATTAATAGTCACACACGTATTTTTTATATAT [CACACA_site2526]	6.16
AATTCAAATATAAATACACACACATAGCTACAAAAT [CACACA_site9386]	7.07
ATTTAACAACTTCAAACACACAATATATATATATAT [CACACA_site2093]	9.12
AAATATATATGTGGGGGTACTAATAAAAAAACCCCT [XGTACX_site2657]	6.65

From the supplement of paper PMC11417369
